In patent publication US20150258059A1, “ANTIMICROBIAL AND RADIOPROTECTIVE COMPOUNDS” (BioDiem, Ltd, priority 2001, published 2015):
Read-outs that look alike come from different tables or passages of the source.

Assays:
Format in all cases: cell-based
[1] = tested on: A. calcoaceticus; assay: Antibacterial activity in the presence of blood, macrodilution
[2] = tested on: Escherichia coli; assay: Effect of solvent on MIC, microdilution
Protocol: (§1) The effect of formulation in DMSO and ethanol on the MIC of Compound (1) was compared for Candida albicans, Salmonella Typhimurium and Escherichia coli using both the macrodilution and microdilution tests.
(§2) Stock solutions in ethanol were allowed to stand for 48 h before use to improve solubility. Compound (1) is not as soluble in ethanol as in DMSO. The concentration of ethanol and DMSO was kept constant at 2% and compared to a decreasing concentration of solvent on normal dilution of the stock solution. There was no difference between the two test methods. There was no difference in MIC between constant and decreasing levels of DMSO.

[3] = tested on: Candida albicans; assay: Effect of solvent on MIC, microdilution
Protocol: as §1, §2

[4] = tested on: Salmonella typhimurium; assay: Effect of solvent on MIC, microdilution
Protocol: as §1, §2

[5] = tested on: Neisseria gonorrhoeae WHO Strain VII; assay: NCCLS broth microdilution MIC/MBC
[6] = tested on: Streptococcus pyogenes; assay: NCCLS broth microdilution MIC/MBC; settings: Table 17, 2 or 3 replicates, RMIT strain
[7] = tested on: Fonsecaea pedrosoi; assay: M38-P microdilution MIC/MFC
[8] = tested on: Rhizomucor pusillus; assay: M38-P microdilution MIC/MFC; settings: Table 16, 48 h, 35° C.
[9] = tested on: A. Flavus; assay: M38-P microdilution MIC/MFC; settings: Table 16, 48 h, 35° C.
[10] = tested on: Enterococcus faecalis ATCC 29212; assay: NCCLS broth microdilution MIC/MBC; settings: Table 17, 2 or 3 replicates
[11] = tested on: Enterobacter aerogenes; assay: NCCLS broth microdilution MIC/MBC; settings: Table 17, 2 or 3 replicates
[12] = tested on: Moraxella catarrhalis RMIT; assay: NCCLS broth microdilution MIC/MBC; settings: Table 17, 2 or 3 replicates
[13] = tested on: C. tropicalis RMIT 181; assay: M38-P microdilution MIC/MFC; settings: 35° C.
[14] = Table 19, 24 H, 35° C., O2-MICRO METHOD

C/C(=C\c1ccc2c(c1)OCO2)[N+](=O)[O-] [Compound (1)]
256 µg/mL: MMC ([1]; 5% blood) | MBC ([2]; EtOH (2%))
32 µg/mL: MMC [9] | MIC ([10]; Enterococcus faecalis, ATCC29212) | MMC [10] | MIC ([12]; Moraxella catarrhalis) | MMC [12]
4 µg/mL: MIC ([8]; Rhizomucor pusillus) | MIC ([13]; Candida tropicalis, RMIT181, Table 16, 24 h) | MMC ([13]; Table 16, 24 h)
8 µg/mL: MIC ([3]; Candida albicans, DMSO, read-out: MIC) | MIC ([3]; EtOH (2%)) | MMC [8]
512 µg/mL: MIC ([2]; DMSO) | MIC ([4]; EtOH (2%)) | MIC ([4]; Salmonella enterica, TYPHIMURIUM, DMSO, read-out: MIC) | MIC ([11]; Klebsiella aerogenes) | MMC [11]
2 µg/mL: MIC ([5]; Neisseria gonorrhoeae, Table 17, 2 or 3 replicates, read-out: MIC) | MMC ([5]; Table 17, 2 or 3 replicates) | MIC [5, 14] | MMC [5, 14] | MIC ([7]; Fonsecaea pedrosoi) | MMC ([7]; Table 16, M38-P, Dematiaceous fungi)
128 µg/mL: MMC ([1]; 10% plasma) | MIC ([2]; EtOH (2%))
> 512 µg/mL: MBC ([2]; DMSO) | MBC ([4]; Salmonella enterica, TYPHIMURIUM, DMSO, read-out: MBC)
64 µg/mL: MIC ([1]; Acinetobacter calcoaceticus, 5% blood, read-out: MIC)
16 µg/mL: MBC ([3]; Candida albicans, DMSO, read-out: MBC) | MBC ([3]; EtOH (2%)) | MIC ([6]; Streptococcus pyogenes) | MMC [6] | MIC ([9]; Aspergillus flavus)
>512 µg/mL: MBC ([4]; EtOH (2%))
